Out of some 45,000 compounds screened, about 65 (0.1%) were called active. The call rests on the fitted dose curve; in most records, active means well fitted activation curve with a large enough effect; inconclusive means small, poorly fitted or top-dose-only effect; inactive means no such curve, though single readings can be large or run the other way. The list shows a part of the results.
biological target: Galactocerebrosidase (Homo sapiens) (UniProt P54803); test: A Novel Cell-Based Assay to Identify Small Molecules for B -Galactocerebrosidase; settings: 145M-Twi-hGALC-G270D cells (Twitcher mouse brain line with human GALC G270D), HMU-beta-Gal fluorescence, 48 h; series mostly up to 57.5 µM; activation: at the top concentration; further: 0% is about no effect; nearly all actives have a fitted effect of over 65% in size
UniProt P54803, sequence (P54803 whole entry, looked up): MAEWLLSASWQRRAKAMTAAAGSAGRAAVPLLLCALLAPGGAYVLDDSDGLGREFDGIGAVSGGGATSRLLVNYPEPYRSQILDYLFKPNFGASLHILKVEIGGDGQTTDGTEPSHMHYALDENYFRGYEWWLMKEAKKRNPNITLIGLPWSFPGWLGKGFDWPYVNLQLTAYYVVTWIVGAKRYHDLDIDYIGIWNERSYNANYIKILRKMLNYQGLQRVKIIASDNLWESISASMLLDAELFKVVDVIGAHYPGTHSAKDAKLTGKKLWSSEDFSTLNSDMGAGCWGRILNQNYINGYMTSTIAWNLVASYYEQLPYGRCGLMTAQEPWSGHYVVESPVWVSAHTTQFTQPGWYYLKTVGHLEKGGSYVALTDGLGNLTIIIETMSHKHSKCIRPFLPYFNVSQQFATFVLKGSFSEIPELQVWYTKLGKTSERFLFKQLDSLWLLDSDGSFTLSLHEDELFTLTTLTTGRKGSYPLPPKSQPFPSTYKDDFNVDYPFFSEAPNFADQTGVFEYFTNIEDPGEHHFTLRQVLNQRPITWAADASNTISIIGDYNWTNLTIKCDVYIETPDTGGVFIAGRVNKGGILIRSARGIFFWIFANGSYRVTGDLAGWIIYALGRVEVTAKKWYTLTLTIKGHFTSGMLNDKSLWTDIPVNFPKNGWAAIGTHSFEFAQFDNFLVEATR
Method in brief: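 Fluorescence readout: HMU-β-gal cleavage by mutant GALC (0.1 mM final, citrate/phosphate pH 5.2 with 1 mg/mL taurocholate), stopped with carbonate/bicarbonate plus Triton X-100. Cells: murine Twitcher 145M-Twi expressing human G270D GALC; qHTS for activators.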

activation, inactive:
CCOC(=O)c1c(C)[nH]c(C)c1S(=O)(=O)N(C)CC(=O)Nc1ccc(C)c(F)c1 -13.1%
CCc1nnc2c3ccccc3nc(N3CCN(c4cc(Cl)ccc4C)CC3)n12 -1.66%
COc1ccc(NC(=O)CCc2c(C)nc3cc(-c4cccc(F)c4)nn3c2C)cc1Cl -13.1%
CCOc1ccc(NC(=O)Cn2c(=O)n(-c3ccccc3)c(=O)c3c4c(sc32)CCCC4)cc1 -2.21%
CCc1ccc(S(=O)(=O)c2cn(Cc3ccc(OC)cc3)c3cc(OC)c(OC)cc3c2=O)cc1 7.03%
O=C(COc1ccc(Br)cc1)Nc1ccc(C(=O)OC2CCCCC2)cc1 -16.3%
Cc1cccc(C(=O)Nc2ccccc2OCc2cc(=O)n3cc(C)ccc3n2)c1 -3.24%
CC(=O)N1CCCc2cc(S(=O)(=O)N3CCCC(C(=O)Nc4ccc(C)c(F)c4)C3)ccc21 (stereo not given) -13.6%
COC(=O)c1c(Oc2ccc(Br)cc2)nnc(-c2ccccc2)c1-c1ccccc1 -14.6%
Cc1c(Cl)cccc1NC(=O)Cn1c(=O)n(Cc2ccco2)c(=O)c2oc3ccccc3c21 -8.73%
O=C1CC(c2ccc(Br)cc2)c2c(ccc3ccccc23)N1 (stereo not given) -24.5%
Cc1ccc(CN2CCC(CNC(=O)Nc3cccc(C)c3C)C2)cc1 (stereo not given) -4.88%
CCc1nc2nc(C)cc(Nc3ccc(F)c(Cl)c3)n2n1 -9.21%
CC(C)n1c(=O)c2oc3ccccc3c2n(CC(=O)Nc2ccccc2Cl)c1=O -4.99%
COc1ccccc1-c1c(C)nn2c(N3CCN(c4ccc(F)cc4)CC3)cc(C)nc12 -12.4%
CCN(CC)CCCNc1oc(-c2ccc(OC)cc2)nc1C#N -11.4%
CN1C(=O)c2ccccc2Sc2ccc(NC(=O)N3CCN(c4cccc(Cl)c4)CC3)cc21 -41.8%
COc1ccc(Cl)cc1NC(=O)CCn1nc(C)cc1C -10.1%
CN(C)c1ccc(C(=O)NCc2ccc3c(c2)CCN3C(=O)c2ccc(Cl)cc2)cc1 -12.2%
Clc1ccc(CNc2ncnc3onc(-c4ccc(Cl)cc4)c23)cc1 -11.3%
COc1ccc(OC)c(CNc2ncnc3onc(C)c23)c1 -10.4%
CCc1cccc(C)c1NC(=O)c1cc(S(=O)(=O)N2CCN(c3ccccc3)CC2)ccc1F -10.8%
CCOC(=O)c1cc2c(=O)n3ccccc3nc2n(C(C)C)c1=NC(=O)c1c(-c2c(F)cccc2Cl)noc1C -14.6%
COc1ccc2c(c1)CC(C(=O)Nc1cc(OC)c(OC)c(OC)c1)CO2 (stereo not given) -10.9%
Cc1cccc(CCNC(=O)CCc2c(C)nc3c(c(C)nn3-c3ccccc3)c2C)c1 -17.2%
COc1cc(OC)cc(C(=O)Nc2cccc(-c3cn4ccsc4n3)c2)c1 -0.812%
COc1ccc(C(=O)NCc2ccc3c(c2)CCN3C(=O)c2ccc(Cl)cc2)c(OC)c1 -16.8%
CCC1CCCCN1C(=O)Cn1c(=O)n(-c2ccc(Cl)c(Cl)c2)c(=O)c2c(C)c(C(=O)N(C)C)sc21 (stereo not given) -1.66%
CCOc1ccc(NC(=O)CSc2cn(CC(=O)N3CCOCC3)c3ccccc23)cc1 -12.6%
CC(C)OCCCn1c(SCc2ccccc2Cl)nc2c(sc3ccccc32)c1=O 1.51%
CCC(Cc1ccccc1)NC(=O)c1cccc(Nc2nc3ccccc3nc2-n2nc(C)cc2C)c1 (stereo not given) -10.1%
CCC1CN(C(=O)N2CCC(C(=O)NCCC3=CCCCC3)CC2)c2ccccc2O1 (stereo not given) -17.7%
Cc1ccc(N(CC(=O)N2CCN(c3cccc(C)c3C)CC2)S(=O)(=O)c2c(C)nn(C)c2C)cc1 -36.7%
CCN(c1cc(C)cc(C)c1)S(=O)(=O)c1nnc(NC(=O)c2ccccc2C)s1 -15.3%
CC(=O)Nc1c(C)nn(-c2ccccc2)c1N1CCC(C(=O)NCc2cccc(F)c2)CC1 -14.3%
Cc1c(Cl)cccc1Nc1ccccc1C(=O)O -22.9%
COc1ccc(CCNC(=O)c2cc(=O)[nH]c3ccc(S(=O)(=O)N4CCCCC4)cc23)cc1OC -1.14%
CCOc1ccc(NC(=O)C2CCC(CNS(=O)(=O)c3ccc4c(c3)CCCC(=O)N4)CC2)cc1 (stereo not given) -7.31%
CCOc1ccc(NC(=O)N2CCN(C(=O)c3nsc4ccccc34)CC2)cc1 -11.9%
Cc1cccc(NC(=O)c2ccc(Cn3nc(N4CCN(c5ccccc5)CC4)ccc3=O)o2)c1C 2.62%
Cn1nc(C(=O)NCc2ccccc2Cl)c2c1-c1ccccc1SC2 -10.1%
CCN(CC)c1nn2c(=O)c(C(=O)NCc3ccccc3Br)cnc2s1 -13%
COc1ccc(CCNC(=O)c2ccc3c(c2)CCN3S(=O)(=O)c2ccc(C)cc2)cc1OC -12.9%
COc1ccc(-c2cc(C(F)(F)F)nc(SCC(=O)N(C)Cc3ccccc3)n2)cc1 -5%
O=S(=O)(c1ccc2nc(Nc3ccc(Br)cc3F)ccc2c1)N1CCCCC1 -2.92%
CCSc1nc2sc3c(c2c(=O)n1-c1ccc(C)c(Cl)c1)CCN(C(C)=O)C3 -2.07%
O=C(COc1ccccc1Cl)Nc1ccc2nc(SCC(=O)N3CCOCC3)sc2c1 -7.11%
Cc1ccc(NC(=O)CSc2nccn2-c2ccccc2)cc1 -7.76%
COC(=O)c1ccc2c(c1)N(CC(=O)Nc1ccc(C)cc1Cl)C(=O)c1ccccc1S2 -12%
COc1ccc(C)cc1NC(=O)CN(C)S(=O)(=O)c1ccc2[nH]c(=O)oc2c1 -12.8%
CCc1nccn1S(=O)(=O)c1cc(Br)ccc1Br -5.8%
COC(=O)c1sccc1S(=O)(=O)N(CC(=O)Nc1cc(F)ccc1F)c1ccc(C)c(C)c1 -14%
CCc1ccc(-c2[nH]nc3nc(-c4cc(OC)ccc4OC)cc(C(=O)O)c23)cc1 -8.41%
Cc1cc(=O)n(Cc2ccc(Br)cc2F)c2c1c(C)nn2-c1ccccc1 3.43%
Cc1ccc(NC(=O)Cn2c(=O)n(CCCCC(=O)NCCc3ccccc3)c(=O)c3ccccc32)cc1 -2.48%
Cc1ccccc1Cn1cc(S(=O)(=O)c2ccc(F)cc2)c(=O)c2cc3c(cc21)OCO3 -12.1%
Cc1cc(Cl)ccc1OCCSc1nnc(-c2cccs2)o1 -10.7%
O=C(CCNS(=O)(=O)c1ccc2c(c1)CCCC(=O)N2)NCc1ccc(Cl)cc1 -26.6%
COCCOC(=O)c1c(C)oc2c1cc(NS(=O)(=O)c1ccc(Cl)c(C)c1)c1ccccc12 -18.3%
Cc1c(-c2cccc(NC(=O)c3ccc(F)c(F)c3)c2)nc2ncccn12 -3.52%

Source: PubChem BioAssay AID1159614 (National Center for Advancing Translational Sciences (NCATS), 2016)
